For orientation: inhibition means the drop in the measured response relative to a control, in per cent.

About 6,900 (2%) of roughly 340,000 compounds were called active. Rule as the data show it: active = inhibition above about 30%; inactive = below that, where a call was filed. The list shows a part of the results, in another mix than the full data. The source gives no active or inactive call for entries shown without one.

The target in the test is D(2) dopamine receptor (Homo sapiens) (UniProt P14416). Put plainly: HTS Assay for Allosteric Antagonists of the Human D2 Dopamine Receptor: Primary Screen for Antagonists. Also: 0% is about no effect. Conditions: HEK293 TREx D2 cells, calcium flux, dopamine EC80; at 10 µM; stronger effect = higher value. The essentials: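 Antagonism is scored as inhibition of an EC80 dopamine-evoked calcium signal in a force-coupled, tetracycline-inducible HEK293 T-REx D2 line, with compound present 180 s before agonist.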
Chain of UniProt P14416 (P14416 whole entry, looked up): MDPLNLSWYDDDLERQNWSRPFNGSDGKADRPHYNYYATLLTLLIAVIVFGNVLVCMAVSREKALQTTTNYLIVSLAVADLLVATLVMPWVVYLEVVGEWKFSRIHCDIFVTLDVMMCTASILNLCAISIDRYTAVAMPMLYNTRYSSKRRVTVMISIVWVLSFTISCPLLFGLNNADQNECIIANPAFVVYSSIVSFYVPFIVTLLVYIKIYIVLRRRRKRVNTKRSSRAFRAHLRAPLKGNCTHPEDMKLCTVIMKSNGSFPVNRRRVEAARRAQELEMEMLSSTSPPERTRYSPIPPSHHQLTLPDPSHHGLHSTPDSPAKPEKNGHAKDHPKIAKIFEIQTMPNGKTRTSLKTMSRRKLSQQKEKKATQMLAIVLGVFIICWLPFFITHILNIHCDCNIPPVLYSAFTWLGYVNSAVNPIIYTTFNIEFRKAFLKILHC
A general note: A change in cytosolic calcium serves as a functional read-out for many receptors and channels.
As to `CCOc1ccc(-c2nonc2NC(=O)c2ccco2)cc1OCC`, the inhibition is -5.26%.
In the case of `CCOc1ccccc1CNC(=O)c1cc2c(=O)n(Cc3ccco3)ccc2nc1C` it was 3.76%.
In the case of `COc1ccc(C(=O)COc2nc(C)cc(C)c2C#N)cc1` it was active: 34.9%; in that of `CCOC(=O)c1cc(-c2ccccc2)n(CC(=O)NCc2ccccc2)c1C`, -0.101%; in that of `Cc1ccc(C)c(Cn2c(=O)n(CCCC(=O)NCCc3ccc(Cl)cc3)c(=O)c3ccccc32)c1`, 13.1%.
As to `O=c1c(Cc2ccc(F)cc2)c(O)ccn1Cc1ccc(Cl)cc1Cl`, the inhibition is active: 44.2%.
Consider `O=C(COc1ccc(Cl)cc1)NCC(c1cccs1)S(=O)(=O)c1ccc(F)cc1` (configuration not stated), for which the inhibition came to 25.8%.
Consider `CC1=C(C(=O)N2CCN(c3ccc(Cl)cc3)CC2)C2(CCC(C)CC2)OC1=O` (configuration not stated), for which the inhibition came to 21.7%.
In the case of `O=C(Cn1c(=O)n(Cc2ccccc2)c(=O)c2sc3ccccc3c21)Nc1ccc(F)cc1` it was 3.09%; in that of `CCCCN(CC)CCCNC(=O)c1cc2c(=O)oc3ccc(C)cc3c2s1`, -2.91%; in that of `CCOc1ccc(S(=O)(=O)NCc2nc3cccnc3n2Cc2ccccc2OC)cc1`, -8.99%.
`CCOC(=O)C1CCN(C(=O)c2ccc3c(c2)sc2nc(-c4ccc(OC)cc4)cn23)CC1`: the inhibition is -1.06%.
As for `CCCCNC(=O)CSc1nc2n[nH]c(C)c2c(=N)n1-c1cccc(C)c1`, the figure is 8.77%; as for `CCCOc1ccc(-c2nc3ccc(Br)cc3c(=O)o2)cc1`, -12.9%.
On to `Cc1nc2ccc(S(=O)(=O)NC(CC(C)C)C(=O)NCc3ccc(Cl)cc3)cc2s1` (configuration not stated), for which the inhibition was found to be 2.75%.
In the case of `CC(C)C(C)(C#N)NC(=O)CSc1ncnc2sc(-c3ccccc3)cc12` (configuration not stated) it was active: 31%; in that of `Cc1c(C(=O)OC2CCCCCC2)[nH]c2c1C(=O)CC(c1ccccc1)C2` (configuration not stated), 2.18%.
For the molecule `CCc1ccc(OC(=O)c2cccnc2)cc1`, the inhibition is active: 32.1%.
As for `COc1ccc(C2=NC(C)(C)N(CC(=O)Nc3cc(OC)cc(OC)c3)C2=O)cc1`, the figure is 2.22%; as for `CN(c1ccc(F)cc1)S(=O)(=O)N1CCCC(C(=O)NCCc2ccccc2)C1` (configuration not stated), -3.4%; as for `CCN1CCN(c2cc(C)c3cc(NC(=O)/C=C/c4cccc(OC)c4OC)ccc3n2)CC1`, 2.98%.
As for `Cc1ccc(-c2cc3nccc(-c4cc([N+](=O)[O-])ccc4O)n3n2)cc1`, the figure is -1.27%.
As for `CC(=O)NC(C)c1nc2ccccc2n1Cc1ccccc1Cl` (configuration not stated), the figure is -0.292%; as for `CCOC(=O)N1CCN(c2ncc3c(n2)CC(c2ccc(Cl)cc2)CC3=O)CC1` (configuration not stated), 6.26%.
As to `COc1ccc(S(=O)(=O)N2CCC(N3CCN(c4ccccc4)CC3)CC2)cc1`, the inhibition was active: 61.4%.
In the case of `COc1ccc(C2C(C(=O)Nc3cccnc3)=C(C)Nc3nc(SCc4ccccc4)nn32)cc1` (configuration not stated) it was 1.43%.
As for `Cc1ccc(C)c(NC(=O)C2CCCN2S(=O)(=O)c2ccc3c(c2)n(C)c(=O)c(=O)n3C)c1` (configuration not stated), the figure is -4.1%; as for `COc1cc(-c2noc(-c3ccc(NC4CCCC4)c([N+](=O)[O-])c3)n2)cc(OC)c1OC`, 10.6%.
Consider `CCOC(=O)CCCCN(Cc1ccccc1F)S(=O)(=O)c1ccc(F)c(C(=O)Nc2cc(Cl)cc(Cl)c2)c1`, for which the inhibition is 16.7%.
In the case of `CCOc1ccc(NC(=O)Nc2cc3c(cc2N2CCCCC2)n(C)c(=O)n3C)cc1` it was 18.2%; in that of `O=C(NCc1ccc(F)cc1)c1nnc(Cc2cccc(F)c2)o1`, 22.1%; in that of `COc1ccc(-c2noc(-c3cc(-c4ccc(F)cc4)n[nH]3)n2)cc1`, -1.46%.
In the case of `C=CCc1cccc2cc(-c3nc4ccc(C(=O)O)cc4[nH]3)c(=O)oc12` it was -8.01%; in that of `CCCN(CC(=O)Nc1ccccc1C)C(=O)c1ccc(C(=O)c2ccccc2)cc1`, active: 42.8%.
In the case of `O=C(Nc1ccccc1Br)c1cc(S(=O)(=O)NC2CCCCC2)ccc1F` it was -20.3%; in that of `COc1cc(NC(=O)CN2CCCN(S(=O)(=O)c3ccc(F)cc3)CC2)cc(OC)c1`, 5.05%.
With `CCOC(=O)c1cc(S(=O)(=O)Nc2c(C)cc(C)cc2C)[nH]n1`, the inhibition was -9.86%.
As for `Cc1ccc2nc(-c3ccc(NC(=O)COc4ccccc4C(C)(C)C)cc3)sc2c1`, the figure is 1.68%.
As for `Cc1ccc2oc(C(=O)Nc3cccc(-c4nc5ccccc5s4)c3)c(C)c2c1`, the figure is 1.79%; as for `Cc1ccc(Nc2ncc(C(=O)N3CCN(c4cccc(Cl)c4)CC3)c3ccccc23)cc1Cl`, -13.9%.
In the case of `COc1ccccc1C(=O)c1cn(CC(=O)Nc2ccccc2F)c2nc(C)ccc2c1=O` it was -1.8%; in that of `Cc1ccc(C)c(N2CCN(C(=O)c3cc(S(=O)(=O)N4CCC(C)CC4)cn3C)CC2)c1`, 14.8%; in that of `COc1ccc(CC(=O)NCC(c2cccs2)S(=O)(=O)c2ccc(Cl)cc2)cc1` (configuration not stated), 12.6%.
Turning to `Cc1c(C(=O)N2CCCC2)oc2c1-c1nn(CC(=O)NC(C)c3ccccc3)cc1CC2` (configuration not stated), the inhibition came out at 3.16%.
On to `CCC(C(=O)Nc1cc(OC)ccc1OC)n1c(C)c2cnn(-c3ccccc3)c(=O)c2c1C` (configuration not stated), for which the inhibition amounted to 10.4%.
As for `COc1ccc(-n2ccn(CC(=O)NCc3ccc(C)cc3)c(=O)c2=O)cc1OC`, the figure is 9.64%; as for `Cc1cc(F)ccc1NC(=O)c1ccc2nc(Cc3ccccc3)oc2c1`, -20.9%; as for `Cc1ccc(S(=O)(=O)NCCc2nnc3ccc(SCc4ccc(F)cc4)nn23)cc1`, 14.2%.
In the case of `CCCn1c2ccccc2c2cnn(CC(=O)N(Cc3ccccc3)C(C)C)c(=O)c21` it was -7.5%.
As for `CCCOc1ccc(-c2nc(N3CCC(C)CC3)c3ccccc3n2)cc1`, the figure is 9.62%; as for `CC(=O)NC12CC3CC(C1)CC(C(=O)N1CCN(S(=O)(=O)c4ccccc4[N+](=O)[O-])CC1)(C3)C2`, active: 44.6%; as for `N#CCCn1cc(/C=N/N=C2\NC(=O)C(CC(=O)O)S2)c(-c2ccc(F)cc2)n1` (configuration not stated), active: 35.1%.
`O=C(Nc1ccc(F)cc1)NC1CCN(Cc2ccccc2)CC1`: the inhibition was active: 52.9%.
As for `Cc1oc(-c2ccc(Cl)cc2)cc1C(=O)NC1CCN(Cc2ccccc2)CC1`, the figure is active: 58.1%.
As to `CCCCOc1ccc(S(=O)(=O)NCc2csc(-c3ccc(OC)cc3)n2)cc1`, the inhibition came out at 3.56%.
As for `COc1ccc(-c2noc(N3CCC(C(=O)N(C)c4cc(Cl)ccc4OC)CC3)n2)cc1`, the figure is -10.9%.
Take `CCOc1cc2[nH]c(=O)n(CCCCC(=O)N3CCN(c4ccccc4)CC3)c(=O)c2cc1OCC`: the inhibition is 6.19%.
In the case of `CCC(C)NC(=O)c1[nH]c2cc(C)ccc2c1Sc1ccc(Cl)cc1` (configuration not stated) it was 16.1%.
In the case of `COc1ccc(CCNC(=O)CCc2cn(Cc3ccc(C)cc3)c3ccccc23)c(OC)c1OC` it was -13.8%; in that of `Cc1cccc(C)c1OCC(=O)Nc1c(C(=O)c2ccc(Br)cc2)oc2ccccc12`, 4.38%; in that of `Cc1cccc(N2CCN(C(=O)C3CCN(S(=O)(=O)c4c(C)noc4C)CC3)CC2)c1C`, -20.9%.
As for `O=C(CN1C(=O)COc2ccc(S(=O)(=O)N3CCCCCC3)cc21)N1CCN(c2cccc(C(F)(F)F)c2)CC1`, the figure is 13%; as for `COc1ccc2oc(=O)c(-c3cn4c(n3)sc3cc(F)ccc34)cc2c1`, -10.4%; as for `CCC1=Nc2cc(C(=O)NCc3ccc(C)cc3)ccc2Sc2ccc(C)cc21`, 12.2%.
On to `CCCCN(C)CCCNC(=O)c1cc(-c2cccnc2)nc2ccccc12`, for which the inhibition stood at 5.28%.
With `COc1ccc(-c2oc3ncn4nc(COc5ccccc5C)nc4c3c2-c2ccc(OC)cc2)cc1`, the inhibition was found to be 1.76%.
As to `COC(=O)c1ccc(OC)c(Cn2c(=O)n(-c3cccc(Cl)c3)c(=O)c3c4c(sc32)CN(C(C)=O)CC4)c1`, the inhibition was -15.4%.
In the case of `Nc1nc(CN2CCN(c3cccc(Cl)c3)CC2)nc(N2CCCc3ccccc32)n1`, the inhibition was active: 70.4%.
In the case of `CCOC(=O)C1CCCN(C(=O)Cn2ncn3c(cc4sc(CC)cc43)c2=O)C1` (configuration not stated), the inhibition is -14.6%.
With `O=C(Nc1ccc(F)cc1)[C@@H](c1ccccc1)N1Cc2ccccc2C1=O`, the inhibition is -12%.
In the case of `COc1cc(OC)c(NC(=O)Cc2ccc(-n3c(C)nc4cccnc43)cc2)cc1Cl` it was 2.16%; in that of `Cc1ccc(C)c(NC(=O)CCc2c(C)nn(-c3ccc(N4CCCC4)nn3)c2C)c1`, -0.652%; in that of `COc1ccc(NC(=O)CSc2nc(-c3ccc(F)cc3)c3cccc(C)c3n2)cc1`, 8.14%.
As for `CCOc1ccc(CCNC(=O)c2ccc(-c3nc(COc4ccc(C)cc4)c(C)o3)cc2)cc1`, the figure is 9.8%; as for `Cc1ccc2nc(CN3CCN(C(=O)Nc4ccc(C)c(F)c4)CC3)oc2c1`, 9.72%.
As for `COc1ccc(C2C(=O)N(C3CCCCCC3)CC(=O)N2CCc2ccc(OC)c(OC)c2)cc1` (configuration not stated), the figure is -12.3%; as for `COc1ccc(CCNC(=O)c2ccc(Cn3c(=O)c4ccccc4n(Cc4ccc(C)cc4)c3=O)cc2)cc1OC`, -24.7%.
`COCCCn1c(SCC(=O)Nc2ccccc2OC)nc2c(sc3ccccc32)c1=O`: the inhibition came to 4.55%.
On to `Cc1ccc(NC(=O)C(=O)NCC(c2ccc3c(c2)OCO3)N2CCN(c3ccccc3)CC2)cc1` (configuration not stated), for which the inhibition is -16.5%.
In the case of `O=C(c1cccs1)c1cn(CCOc2ccccc2Cl)c2ccccc12`, the inhibition is 8.11%.
Regarding `CCN(C(=O)C(Cc1ccccc1)NS(=O)(=O)c1cccc2nsnc12)c1ccccc1` (configuration not stated), the inhibition amounted to 8.23%.
Take `COc1ccc(NC(=O)Cn2c(=O)n(-c3ccc(OC)cc3)c(=O)c3ccc(C(=O)NCc4ccc(C)cc4)cc32)cc1`: the inhibition is -11.3%.
As for `COc1cc(C(=O)NCCc2csc3nc(-c4ccccc4C)nn23)cc(OC)c1OC`, the figure is -12.7%.
As for `CC(C)c1ccc(NC(=O)CC2Oc3ccccc3NC2=O)cc1` (configuration not stated), the figure is -7.29%; as for `COc1ccccc1CCNC(=O)CCc1c(C)c2cc3c(C)c(C)oc3cc2oc1=O`, 20.8%.
In the case of `Cc1ccc(Cl)cc1NC(=O)CN1C(=O)COc2ccc(S(=O)(=O)N3CCCCCC3)cc21` it was 0.552%.
For the molecule `COc1cc(C(=O)Nc2c(C(=O)O)[nH]c3ccc(C)cc23)cc(OC)c1OC`, the inhibition was active: 34.3%.
Turning to `O=c1c2ccccc2nc(-c2ccc(Cl)cc2)n1CCCOc1ccccc1F`, the inhibition is -7.22%.
As for `Cc1ccc2c(c1)c(=O)c(Br)c(C)n2Cc1ccccc1`, the figure is active: 56.3%; as for `CCS(=O)(=O)c1c(Nc2cc(C)ccc2C)sc(C(=O)c2ccccc2)c1N`, -15.1%.
As for `CC1(C)CC(=O)C(=Cc2cn(-c3ccccc3)nc2-c2ccc(Cl)cc2)C(=O)C1`, the figure is active: 32.3%.
In the case of `CC1=C(C(=O)Nc2ccccc2)C(c2cc(Br)ccc2F)n2ncc(C(=O)Nc3ccccc3)c2N1` (configuration not stated) it was 13%.

The values above are taken from PubChem BioAssay AID485344 (National Center for Advancing Translational Sciences (NCATS), 2010).
